# Results: article PMC4336329 (PLoS ONE, 2015)
# Out of some 310,000 compounds screened, about 14,000 (4.5%) showed an effect of 50% or more. Effects have a minus sign here. This is one part of the list.
# Biological target: human ether-à-go-go-related gene (hERG) potassium channel (human, UniProt Q12809)
# Test: primary screen, population patch clamp on CHO cells stably expressing hERG
# 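Further: peak tail current of the secondary pulse compared with the same well before compound.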
# Chain of human ether-à-go-go-related gene (hERG) potassium channel (Q12809 whole entry, looked up): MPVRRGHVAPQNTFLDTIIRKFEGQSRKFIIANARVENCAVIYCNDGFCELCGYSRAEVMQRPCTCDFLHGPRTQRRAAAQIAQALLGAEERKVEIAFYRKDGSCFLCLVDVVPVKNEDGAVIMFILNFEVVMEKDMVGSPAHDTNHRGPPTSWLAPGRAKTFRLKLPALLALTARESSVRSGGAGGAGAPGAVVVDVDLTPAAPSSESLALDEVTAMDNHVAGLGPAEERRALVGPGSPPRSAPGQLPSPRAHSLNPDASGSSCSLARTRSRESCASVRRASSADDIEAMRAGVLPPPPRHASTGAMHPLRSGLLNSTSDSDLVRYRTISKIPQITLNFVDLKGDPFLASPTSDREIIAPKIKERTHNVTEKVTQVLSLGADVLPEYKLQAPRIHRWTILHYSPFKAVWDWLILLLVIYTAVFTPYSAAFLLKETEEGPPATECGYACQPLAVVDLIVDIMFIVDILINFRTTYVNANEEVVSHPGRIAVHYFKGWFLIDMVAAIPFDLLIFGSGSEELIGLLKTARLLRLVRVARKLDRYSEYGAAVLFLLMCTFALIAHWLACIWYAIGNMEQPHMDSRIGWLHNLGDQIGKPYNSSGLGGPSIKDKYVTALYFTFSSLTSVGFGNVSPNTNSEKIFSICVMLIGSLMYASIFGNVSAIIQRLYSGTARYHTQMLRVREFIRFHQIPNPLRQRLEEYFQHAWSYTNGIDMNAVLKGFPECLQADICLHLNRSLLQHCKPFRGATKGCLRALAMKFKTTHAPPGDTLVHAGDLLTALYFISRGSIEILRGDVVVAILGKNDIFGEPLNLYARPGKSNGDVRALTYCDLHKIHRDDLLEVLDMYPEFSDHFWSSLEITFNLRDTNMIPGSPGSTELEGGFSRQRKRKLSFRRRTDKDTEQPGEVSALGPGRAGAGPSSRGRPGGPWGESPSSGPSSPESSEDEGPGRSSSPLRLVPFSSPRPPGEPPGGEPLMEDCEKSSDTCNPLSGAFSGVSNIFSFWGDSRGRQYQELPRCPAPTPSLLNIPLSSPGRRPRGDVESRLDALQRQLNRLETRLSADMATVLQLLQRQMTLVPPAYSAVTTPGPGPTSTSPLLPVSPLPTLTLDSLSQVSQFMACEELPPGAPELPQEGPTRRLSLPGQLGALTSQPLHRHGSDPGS
row,Structure (SMILES),"hERG current change (%, negative = inhibition) at 10uM [%]"
1,Cc1occc(=O)c1OCc1ccccc1,-3.91
2,CCCNC(=O)C(CC)NS(=O)(=O)c1ccc(OC)cc1 (stereo not shown),9.22
3,CC(C)[C@H](NC(=O)[C@@H]1CSC2c3ccccc3C(=O)N21)C(=O)N1CCCCC1 (stereo partly shown),7.3
4,CCOC(=O)CSCC(=O)Nc1nnc(-c2cccc([N+](=O)[O-])c2)s1,-13.4
5,O=S(=O)(Nc1cccc(-n2cnnn2)c1)c1ccc(Cl)cc1,16.7
6,COc1cc(/C=C2\C(=N)N3N=C(S(=O)(=O)CC(C)C)SC3=NC2=O)ccc1OC(=O)c1ccco1,17.2
7,COc1cc2ccccc2cc1C(=O)OCC(=O)N1CCOCC1,15.3
8,COc1ccccc1Cn1c(CCCO)nc2ccccc21,-8.81
9,Nc1c(NCCc2ccccc2)c2ccccc2oc1=O,-11.9
10,COc1ccc(NC(=O)CSc2nc(-c3ccncc3)nn2CC(=O)N2CCCC2)cc1,-8.96
11,CC(C)NC(=O)Cn1cc(C(=O)c2ccccc2)c2ccccc21,19.3
12,CC(C)OCCCNC(=O)c1ccc(NC(=O)C2CCCO2)cc1 (stereo not shown),-10.6
13,CCN1CCN(Cc2ccc(NC(=O)c3ccc(C)c(NC(=O)C4=NN(c5ccccc5)C(=O)C4)c3)cc2C(F)(F)F)CC1,13.6
14,O=Cc1c(N2CCCCC2)nc2ccccn2c1=O,9.69
15,COCCn1nnnc1SCC(=O)c1ccc(F)cc1,12.3
16,CCCCC1CCC(/C(N)=N/O)CC1 (stereo not shown),-0.0893
17,CSC1=NCCN1C(=O)c1ccc(Br)o1,4.71
18,Cc1ccc(NC(=S)NC2CCN(Cc3ccccc3)CC2)cc1C,-34.9
19,O=C(NC1CCCCC1)C1CCCN(S(=O)(=O)c2cccc3cccnc23)C1 (stereo not shown),-9.85
20,CCOC(=O)c1cn2nc(Oc3cccc(C(F)(F)F)c3)ccc2n1,-6.27

row,Structure (SMILES),"hERG current change (%, negative = inhibition) at 10uM [%]"
1,Cc1noc(NS(=O)(=O)c2ccc(NC(=O)NC(C)(C(F)(F)F)C(F)(F)F)cc2)c1C,11.8
2,COc1ccc2nc(N3C(=O)/C(=C/c4ccccc4)NC3=S)sc2c1,-3.36
3,CCCCC(=O)Nc1ccc(NC(=O)c2cccnc2)cn1,-1.56
4,COc1ccc(NC(=O)CN2CC(c3ccccc3)CC2=O)cc1OC (stereo not shown),8.33
5,C[n+]1ccc(-c2ccccc2)c2ccccc21.[O-][Cl+3]([O-])([O-])[O-],18.2
6,Cc1cccnc1NC(=O)c1csnn1,10.7
7,CCS(=O)(=O)N1CCN(c2ccccc2)CC1,2.54
8,COc1nc(OC)nc(N2CCC(C(=O)Nc3cccc4ccccc34)CC2)n1,-16.3
9,Cc1cc(OCCOCCNCc2ccccc2)ccc1C(C)C.O=C(O)C(=O)O,-30.6
10,COc1ccccc1CC(=O)NCCc1c[nH]c2ccccc12,5.81
11,O=C(c1cc(-c2ccccn2)nc2c(Cl)cccc12)N1CCN(C(=O)C2CCCO2)CC1 (stereo not shown),-35.8
12,CCCCn1cnc2c([nH]c3cc(OC)ccc32)c1=O,4.88
13,NC1=NC(c2ccccc2)=NC1(NC(=O)c1ccccc1)C(Cl)Cl (stereo not shown),17
14,CC1=C(C(=O)OCc2ccccc2)N2C(=O)[C@@H](NC(=O)COc3ccccc3)[C@H]2SC1,-44.5
15,O=c1cc(CN2CCN(S(=O)(=O)c3ccccc3)CC2)nc2ccc(Cl)cn12,-56
16,CCOC(=O)Cn1c(=O)oc2cc(S(=O)(=O)N(C)Cc3ccco3)ccc21,-6.02
17,O=C1CC(N2CCCCCC2)C(=O)N1c1ccc2c(c1)OCO2 (stereo not shown),-1.67
18,Cc1ccc(S(=O)(=O)N2CCN(C(=O)C3CCCCC3)CC2)cc1,-16
19,c1ccc(-c2nnc(SCC3CCCO3)nc2-c2ccccc2)cc1 (stereo not shown),-2.07
20,Cc1ccc(NC(=O)c2ccc(OC(=O)COc3ccc(Cl)cc3C)cc2)cc1,5.61

row,Structure (SMILES),"hERG current change (%, negative = inhibition) at 10uM [%]"
1,O=C(NCc1ccc(Cl)cc1)NCc1ccc(Cl)cc1,14.4
2,Cc1nc(SCC(=O)NCC2CCCO2)c2c3c(sc2n1)CCCC3 (stereo not shown),-23.5
3,O=C(NCc1ccncc1)c1cccc(F)c1,0.361
4,COC(=O)CSc1nnc(CSc2nc(C)cc(C)n2)n1Cc1ccco1,7.23
5,Cc1csc(NC(=O)c2ccccc2C(=O)O)n1,-0.365
6,Cc1ccc(C)c(NS(=O)(=O)c2cc(C(=O)NCc3ccccn3)ccc2Cl)c1,-37.5
7,Cc1nc(CC(=O)c2ccc(O)cc2O)cs1,10.1
8,S=c1[nH]nc(-c2ccc3ncccc3c2)n1-c1ccc2c(c1)OCCO2,10.9
9,COc1cc(/C=N/NC(=O)NC23CC4CC(CC(C4)C2)C3)ccc1O,-34.3
10,CCCC(=O)Nc1cc(C)c(NC(=O)Cc2ccccc2)cn1,2.52
11,Cc1nc2cc(NC(=O)NCCC3=CCCCC3)ccc2o1,5.56
12,O=[N+]([O-])c1cc(/C=N/O)ccc1SCc1ccccc1Cl,-1
13,CCc1nnc(NC(=O)CSCc2cc(=O)n3cc(C)sc3n2)s1,5.66
14,Cc1cc(Cl)ccc1N(CC(=O)NCc1ccccc1)S(C)(=O)=O,-1.12
15,C/C=C/C(=O)OCC(=O)NC(=O)NC(C)C,2.41
16,Cc1ccc(CCNC(=O)c2ccc(CS(=O)(=O)c3ccccc3C)o2)cc1,-42.4
17,S=c1[nH]nc(-c2cc(-c3ccccc3)n[nH]2)n1/N=C/c1ccc(Br)s1,13.2
18,COc1cc(O)c(CCC(=O)c2ccc(OC)c(OC)c2)c(OC)c1,9.29
